Measurements reported in paper PMC8233286.
Numbering of substitutions follows the chain as printed. These are yes or no findings as the source states them, for the method shown. In cells and extracts the contact can be indirect. Some binding calls cover weakened binding; strength is not graded here.

Amino acid sequences for entries named in this document (tags omitted). Residues count along the entry.
UniProt P78536, residues 215-824: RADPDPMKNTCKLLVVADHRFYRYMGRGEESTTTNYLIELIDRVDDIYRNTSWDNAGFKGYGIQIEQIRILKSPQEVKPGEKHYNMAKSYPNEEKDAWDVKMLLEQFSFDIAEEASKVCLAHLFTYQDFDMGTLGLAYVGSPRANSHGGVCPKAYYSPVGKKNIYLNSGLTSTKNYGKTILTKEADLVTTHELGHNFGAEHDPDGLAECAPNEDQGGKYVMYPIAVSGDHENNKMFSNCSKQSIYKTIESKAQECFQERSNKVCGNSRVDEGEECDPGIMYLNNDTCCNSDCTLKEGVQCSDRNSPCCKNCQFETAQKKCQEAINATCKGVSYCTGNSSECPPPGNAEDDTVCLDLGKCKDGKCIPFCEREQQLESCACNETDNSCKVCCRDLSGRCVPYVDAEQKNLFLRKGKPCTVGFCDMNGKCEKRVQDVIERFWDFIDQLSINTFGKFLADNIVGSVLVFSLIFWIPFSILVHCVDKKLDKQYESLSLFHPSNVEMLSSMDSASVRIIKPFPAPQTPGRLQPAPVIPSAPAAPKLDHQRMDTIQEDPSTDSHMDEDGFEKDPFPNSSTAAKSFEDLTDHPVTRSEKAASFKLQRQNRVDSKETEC

How the values were obtained:
[1] = molecular target: T1, miR2_W538S (murine iRhom2 with W538S in iCERES), in HEK293 cells (mouse) (UniProt Q80WQ6); test: co-IP; HA-tagged iRhom construct as bait, anti-HA magnetic beads, cleared lysate of stably expressing HEK293 cells (50 mM Tris, 137 mM NaCl, 2 mM EDTA, 10 mM 1,10-phenanthroline, pH 7.5), 90 min, five washes; endogenous ADAM17 detected by western blot; also after cycloheximide treatment (pulse chase)
T1 sequence: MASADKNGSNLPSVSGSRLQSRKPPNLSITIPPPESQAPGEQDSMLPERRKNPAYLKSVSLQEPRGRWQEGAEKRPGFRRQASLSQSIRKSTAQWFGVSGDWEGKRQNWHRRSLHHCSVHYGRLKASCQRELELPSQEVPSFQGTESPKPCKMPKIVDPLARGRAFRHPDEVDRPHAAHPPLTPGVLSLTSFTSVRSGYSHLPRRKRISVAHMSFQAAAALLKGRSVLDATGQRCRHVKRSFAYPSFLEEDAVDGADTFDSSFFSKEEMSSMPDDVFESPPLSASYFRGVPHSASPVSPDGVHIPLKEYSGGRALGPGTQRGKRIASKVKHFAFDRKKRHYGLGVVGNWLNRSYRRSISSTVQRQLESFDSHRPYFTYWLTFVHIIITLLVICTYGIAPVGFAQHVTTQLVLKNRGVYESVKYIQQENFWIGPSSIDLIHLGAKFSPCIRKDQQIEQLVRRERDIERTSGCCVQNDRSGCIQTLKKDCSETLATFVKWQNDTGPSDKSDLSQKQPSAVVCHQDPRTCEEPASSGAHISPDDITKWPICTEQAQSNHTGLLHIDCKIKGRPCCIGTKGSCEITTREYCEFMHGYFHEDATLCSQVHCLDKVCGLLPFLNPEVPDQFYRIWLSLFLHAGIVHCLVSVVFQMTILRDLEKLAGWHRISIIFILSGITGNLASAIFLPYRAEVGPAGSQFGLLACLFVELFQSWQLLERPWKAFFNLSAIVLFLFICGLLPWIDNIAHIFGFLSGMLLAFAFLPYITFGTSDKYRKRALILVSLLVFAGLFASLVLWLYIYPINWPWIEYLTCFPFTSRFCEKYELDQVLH

[2] = molecular target: T2, miR2_W538S_W545S (murine iRhom2 double mutant) (mouse) (UniProt Q80WQ6); test: as above
T2 sequence: T1 sequence with W545S

binding [1]: binds
binding [2]: binds
Substance: mature ADAM17 (mADAM17), endogenous in HEK293 cells (from UniProt P78536 215-824) (enzyme)
